Laboratory results from PubChem BioAssay AID1345083 (National Center for Advancing Translational Sciences (NCATS), 2018).
The whole screen tested about 94,000 compounds, of which about 6,200 (6.6%) were called active. Inconclusive results, whose numbers are uncertain, are shown with a selection of clear calls. Calls follow the shape of the dose curve; as a rule, active = well fitted inhibition curve with a large enough effect; inconclusive = small, poorly fitted or top-dose-only effect; inactive = flat fitted curve, though single readings scatter. Potencies of inconclusive entries are doubtful fits and often do not repeat.

Experiment: Cytotoxic Profiling in HEK 293 Cell Line of Diverse Libraries Using Quantitative High-Throughput Screening; also: nearly all actives have a fitted effect of over 60% in size
Details: HEK 293 viability, ATP luminescence (CellTiter-Glo), 48-72 h; series mostly up to 115 µM
Procedure, shortened: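 Viability of HEK 293 cells, plated at 250 cells/well, was judged by cellular ATP after compound treatment for 48 or 72 hr. Luminescence was imaged 10 min after CellTiter-Glo addition at room temperature.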
Potency is read from the fitted curve at half-maximal effect; tags tell the direction and shape of the fitted curve.

| Structure (SMILES) | Potency |
| --- | --- |
| COc1ccnc(-c2nnc3ccc(N(C)Cc4ccccc4)nn23)c1 | active: 56.2 µM |
| COc1coc(CN2CCCC(CCc3ccccc3F)C2)cc1=O (stereo unspecified) | inconclusive: 100 µM [inhibitor, single point] |
| CNC(=O)c1cc(C)nc2onc(C3CCN(C(=O)NC4CCCC4)CC3)c12 | inactive |
| CC(C)c1ccc(OCc2nnc(C(=O)N3CCC[C@@H]3C)n2-c2cccnc2)cc1 | inconclusive: 89.1 µM [inhibitor, partial curve] |
| COCc1nncn1C1CCN(C(=O)c2ccccc2OC(F)(F)F)CC1 | inactive |
| CC1=C[C@@H](CNC(=O)NC(C)C)[C@H](C(C)C)C[C@H]1Cc1nnc(-c2ccncc2)o1 | inconclusive: 35.5 µM [inhibitor, partial curve, poor fit] |
| COc1cccc(N2CC(C(=O)N3CCC(C(=O)N4CCOCC4)C3)NC2=O)c1 (stereo unspecified) | inactive |
| O=C(NCc1cccs1)c1ccc2c(c1)n(Cc1cccc(F)c1)c(=O)c1ccnn12 | inconclusive: 39.8 µM [inhibitor, full curve, poor fit] |
| COc1ccc(-c2nc(C)nc3c2CCN(C(=O)c2ccc4c(c2)OCO4)CC3)cc1 | inconclusive: 89.1 µM [inhibitor, single point] |
| Fc1ccc(Nc2cnc3ccc(-c4ccccc4)nn23)cc1 | active: 100 µM |
| Cc1ccc(N2CCN(C(=O)c3ccc4c(c3)N(C)C3CCCCCN3C4=O)CC2)cc1 (stereo unspecified) | active: 39.8 µM |
| Cc1ccsc1CN1CCOc2cc([S+](=O)([O-])Nc3cccnc3)ccc2C1 | inconclusive: 70.8 µM [inhibitor, partial curve] |
| CC(=O)N1CCC(Oc2ccccc2-c2nc(-c3ccccc3)no2)C1 (stereo unspecified) | inconclusive: 89.1 µM [inhibitor, single point] |
| Cn1ncc2c(C(=O)NCCCc3ccccc3)cc(-c3cccc(C(F)(F)F)c3)nc21 | inconclusive: 25.1 µM [inhibitor, full curve, poor fit] |
| CCNC(=O)c1cccnc1OC1CCN(C(=O)c2ccc(C)c(C)c2)C1 (stereo unspecified) | inactive |
| CC1Oc2ccc(NC(=O)c3ccccc3F)cc2CN(C2CCCc3ccccc32)C1=O (stereo unspecified) | inconclusive: 25.1 µM [inhibitor, partial curve, poor fit] |
| Cc1noc(C)c1CC(=O)N1CC(=O)N(C2CCCCC2)CC(OCc2ccccc2)C1 (stereo unspecified) | inconclusive: 35.5 µM [inhibitor, partial curve] |
| COC[C@@H]1CN(C(=O)c2cccnc2)C[C@H]1c1ccccn1 | inactive |
| O=C(NCC1CC1)c1cc(-c2ccsc2)c2nncn2n1 | inactive |
| O=C(NCc1ccc(Cl)cc1)c1ccc2nnc(-c3cc(C(F)(F)F)cc(C(F)(F)F)c3)n2c1 | active: 14.1 µM |
| Cc1c(Cl)cccc1NC(=O)Cn1c(C)cc2nc3n(c(=O)c21)CCCC3 | inactive |

| Structure (SMILES) | Potency |
| --- | --- |
| COc1ccc(OCC2CN(Cc3ccc4c(c3)OCO4)[S+](=O)([O-])c3cccnc3O2)cc1 (stereo unspecified) | inconclusive: 35.5 µM [inhibitor, partial curve, poor fit] |
| Cn1nc2n(c1=O)CCN(S(=O)(=O)c1ccc3[nH]c(=O)oc3c1)CC2 | inactive |
| CNC(=O)c1cc(C2CC2)nc2onc(C3CCN(C(=O)c4ccccc4F)C3)c12 (stereo unspecified) | inactive |
| COCCOC1CCN(C(=O)c2ccc3cc[nH]c3c2)CC1 | inactive |
| CCn1cc(S(=O)(=O)NCC2Cn3cccc3CN2Cc2ccccc2)cn1 (stereo unspecified) | inconclusive: 56.2 µM [inhibitor, partial curve, poor fit] |
| Cn1cc(-c2ccsc2)c2nc(CN3CCNC(=O)C3)cn2c1=O | inactive |
| Cc1cnn(CCC(=O)N[C@@H]2COCC[C@H]2OCc2ccccn2)c1 | inactive |
| O=C(Nc1ccc(Oc2ccccc2)cc1)N[C@H]1CO[C@H]2[C@@H]1OC[C@@H]2n1nnnc1Oc1ccc(-n2ccnc2)cc1 | active: 39.8 µM |
| CN1C[C@H](C(=O)Nc2ccncn2)C[C@H]1c1cccc(C(F)(F)F)c1 | inconclusive: 63.1 µM [inhibitor, partial curve, poor fit] |
| CC(C)(C)c1csc(NC(=O)c2ccc3c(c2)OCCN(C2CCC2)C3)n1 | active: 50.1 µM |
| Clc1cc(NCCc2ccccn2)n2nccc2n1 | inconclusive: 126 µM [inhibitor, single point] |
| COc1ccccc1N1CCN(C(=O)C[C@@H]2CCNC[C@@H]2Cc2cc(-c3ccc(F)cc3)on2)CC1 | inconclusive: 50.1 µM [inhibitor, partial curve, poor fit] |
| CCOc1cc(C(=O)N2CCC(Cc3nc(-c4ccc(F)cc4)no3)CC2)cc(OCC)c1OCC | active: 35.5 µM |
| CN(C)CC(=O)N1CCC2(CC1)NCCc1c2[nH]c2ccccc12 | inconclusive: 56.2 µM [inhibitor, partial curve, poor fit] |
| CCN(CC)C[C@H]1O[C@H](Cc2cc(-c3ccc(F)cc3)on2)CC[C@@H]1O | inconclusive: 112 µM [inhibitor, partial curve, poor fit] |
| COc1ccccc1OCC(=O)c1ccc2c(c1)N(CCCC(=O)N1CCC(C)CC1)C(=O)CO2 | inconclusive: 39.8 µM [inhibitor, full curve, poor fit] |
| CCOC(=O)[C@H]1C[C@]2(CCCCN(CCOC(C)=O)C2=O)N(C(=O)CC(C)C)[C@H]1c1ccco1 | inconclusive: 89.1 µM [inhibitor, single point] |
| C[C@]1(CO)[C@H]2Cc3sc(NC(=O)c4ccco4)nc3[C@@H](CC(=O)NCc3ccccc3)[C@]2(C)CC[C@H]1O | inconclusive: 79.4 µM [inhibitor, partial curve, poor fit] |
| CN1C[C@@H](NC(=O)c2ccc(F)cc2)C[C@H]1c1nc(-c2ccc(OC(F)(F)F)cc2)no1 | inconclusive: 50.1 µM [inhibitor, partial curve, poor fit] |
| O=C(NCc1ccc(Cl)cc1)c1ccc2nnc(-c3ccc(OC(F)(F)F)cc3)n2c1 | inconclusive: 50.1 µM [inhibitor, partial curve, poor fit] |
